In PubChem BioAssay AID588591 (National Center for Advancing Translational Sciences (NCATS), 2011):
The campaign covered roughly 390,000 compounds. About 4,700 (1.2%) were called active. Inconclusive results, whose numbers are uncertain, are shown with a selection of clear calls. Calls come from the whole dose curve; as a rule, active = well fitted inhibition curve with a large enough effect; inconclusive = small, poorly fitted or top-dose-only effect, or another doubt; inactive = no such curve, though single readings can be large or run the other way. Potencies beside an inconclusive call are fits to weak or partial responses and may not hold up.

target: DNA polymerase eta (Homo sapiens) (UniProt Q9Y253); experiment: qHTS for Inhibitors of Polymerase Eta; conditions: recombinant Pol eta, fluorescent DNA replication assay; series mostly up to 114 µM; activity change, negative = inhibition: at the top concentration
How it was run: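 Pol eta at 10 nM preincubated with compounds 15 min at room temperature; reaction started with fluorescent substrate (50 nM final) and read kinetically at 0 and 10 min.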
% is set by controls: 0 for no effect and ±100 for the full control effect; potency is the fitted concentration of half-maximal effect; tags give direction and shape of the fitted curve.

Sequence of UniProt Q9Y253 (Q9Y253 whole entry, looked up): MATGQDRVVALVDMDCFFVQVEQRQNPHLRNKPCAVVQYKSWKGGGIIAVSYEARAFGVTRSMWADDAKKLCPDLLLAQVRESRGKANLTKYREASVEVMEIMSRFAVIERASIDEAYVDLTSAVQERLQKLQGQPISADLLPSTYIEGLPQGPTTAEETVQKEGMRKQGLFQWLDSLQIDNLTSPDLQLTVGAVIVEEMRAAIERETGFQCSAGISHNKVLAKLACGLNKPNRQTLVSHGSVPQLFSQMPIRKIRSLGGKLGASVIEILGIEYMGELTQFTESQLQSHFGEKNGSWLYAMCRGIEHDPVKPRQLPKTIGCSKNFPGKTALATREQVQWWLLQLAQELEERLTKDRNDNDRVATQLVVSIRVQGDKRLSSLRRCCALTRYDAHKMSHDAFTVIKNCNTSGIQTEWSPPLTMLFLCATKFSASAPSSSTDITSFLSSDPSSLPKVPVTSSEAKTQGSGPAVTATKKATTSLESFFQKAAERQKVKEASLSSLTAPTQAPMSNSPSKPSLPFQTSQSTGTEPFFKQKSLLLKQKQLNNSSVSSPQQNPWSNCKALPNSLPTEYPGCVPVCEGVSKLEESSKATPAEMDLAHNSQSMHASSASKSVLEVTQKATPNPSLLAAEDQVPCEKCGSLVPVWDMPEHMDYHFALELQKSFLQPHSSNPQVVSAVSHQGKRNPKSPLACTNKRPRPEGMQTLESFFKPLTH

Row | SMILES | activity change, negative = inhibition | Potency
1 | c1ccc2sc(N3CCOCC3)nc2c1 | inactive: -9.62% | 
2 | COc1ccc(Cl)cc1NC(=O)c1c(NCc2cccnc2)sc2c1CCC(C)C2 (configuration not stated) | inactive: 4.77% | 
3 | COc1ccc(NC(=O)/C=C/c2ccc(Br)o2)cn1 |  | active: 50.1 µM
4 | Cc1cc(OC(C)C(=O)NC(Cc2c[nH]c3ccc(O)cc23)C(=O)O)c2c(C)cc(=O)oc2c1 (configuration not stated) |  | inconclusive: 20 µM [inhibitor, partial curve, poor fit]
5 | CCc1n[nH]c(=S)n1/N=C/c1cc(OC)cc([N+](=O)[O-])c1O |  | active: 20 µM
6 | O=C(COC(=O)c1cc(S(=O)(=O)N2CCOCC2)c(Cl)cc1Cl)NCc1ccco1 |  | inconclusive: 31.6 µM [inhibitor, single point]
7 | COc1ccc2nc(/C(C#N)=C\c3ccc(C(=O)O)cc3)[nH]c2c1 |  | active: 22.4 µM
8 | CC(C)CC(C(=O)NC(C)(C)C)N(Cc1cccs1)C(=O)c1snc(C(N)=O)c1N (configuration not stated) |  | inconclusive: 89.1 µM [inhibitor, partial curve, poor fit]
9 | COc1ccc(OC)c(NC(=O)CSc2nc3[nH]c(=O)[nH]c(=O)c3s2)c1 |  | active: 50.1 µM
10 | Cc1cccc(NC(=O)CCNS(=O)(=O)c2ccc3[nH]c(=O)oc3c2)c1 |  | inconclusive: 39.8 µM [inhibitor, partial curve, poor fit]
11 | Cc1ccc(-c2ccc(/C=C3\C(=O)ON=C3c3ccccc3)o2)c([N+](=O)[O-])c1 |  | active: 28.2 µM
12 | COc1cc(OC)c2c(-c3ccccc3)cc(=O)oc2c1C(CCN1CCCCC1)c1ccc2c(c1)OCO2 (configuration not stated) |  | inconclusive: 17.8 µM [inhibitor, full curve, poor fit]
13 | CC1CCc2nc3ccc(S(=O)(=O)N4CCC(C(=O)NC5CCCC5)CC4)cc3c(C(=O)O)c2C1 (configuration not stated) |  | inconclusive: 56.2 µM [inhibitor, partial curve]
14 | CCOC(=O)CSc1ccc(-c2nc3cc(C)c(C)cc3[nH]2)cn1 | inactive: -16.5% | 
15 | Cc1cccc(CN(CC(=O)N/N=C/c2ccco2)S(=O)(=O)c2ccc(Cl)cc2)c1 |  | active: 28.2 µM
16 | O=C(N/N=C/C=C/c1ccco1)c1cccs1 |  | inconclusive: 50.1 µM [inhibitor, partial curve, poor fit]
17 | CCOC(=O)c1c(Nc2ccc(OC)cc2)nnc(-c2ccccc2)c1-c1ccccc1 | inactive: -19.2% | 
18 | CSc1cc(C)c(OCC(=O)Nc2c(C)nn(C)c2C)c(C)c1 |  | inconclusive: 89.1 µM [inhibitor, partial curve, poor fit]
19 | O=C(O/N=C1\CCCCC1c1ccc([N+](=O)[O-])cc1[N+](=O)[O-])c1c(F)cccc1F (configuration not stated) |  | inconclusive: 22.4 µM [inhibitor, partial curve, poor fit]
20 | COc1cccc(NC(=O)Cn2cc(C(=O)c3ccc(C)cc3)c(=O)c3cc(OC)ccc32)c1 |  | active: 79.4 µM
21 | COc1ccccc1NC(=O)c1sc2ncn(CC(=O)Nc3ccccc3)c(=O)c2c1C |  | inconclusive: 50.1 µM [inhibitor, partial curve, poor fit]

Row | SMILES | activity change, negative = inhibition | Potency
22 | COc1ccc(NC(=O)/C(=C\c2ccc(OC)c(OC)c2)NC(=O)c2ccco2)cc1 |  | inconclusive: 79.4 µM [inhibitor, partial curve, poor fit]
23 | NS(=O)(=O)c1ccc(NC(=O)Nc2ccc3c(c2)OCO3)cc1 |  | inconclusive: 8.91 µM [inhibitor, partial curve, poor fit]
24 | O=C(NCc1ccco1)c1cccc(S(=O)(=O)N2CCCCC2)c1 |  | inconclusive: 25.1 µM [inhibitor, single point]
25 | COc1cccc(CC2(CO)CCCN(Cc3c(C)cc(C)cc3-n3cccn3)C2)c1 (configuration not stated) |  | inconclusive: 100 µM [inhibitor, partial curve, poor fit]
26 | COc1ccccc1N1CCN(C(=O)c2c(C)oc3ncn(C)c(=O)c23)CC1 | inactive: -9.4% | 
27 | Cc1cc2c(n1-c1ccc(C(=O)NCc3ccccc3Cl)cc1)CCCC2 | inactive: -6.4% | 
28 | CCc1cc2c(cc3c(=O)n(CCCC(=O)NCc4cccc(Cl)c4)ncn32)s1 |  | inconclusive: 89.1 µM [inhibitor, partial curve, poor fit]
29 | NC(=S)Nc1cccc2cc3ccccc3cc12 |  | inconclusive: 31.6 µM [inhibitor, partial curve, poor fit]
30 | CCN(CC)CCCNC(=O)Cc1csc2nc(-c3ccc(Cl)cc3)cn12 | inactive: -4.27% | 
31 | CC1(C)C(=O)OC(c2cccs2)C2(CCCCC2)C1=O (configuration not stated) |  | inconclusive: 44.7 µM [inhibitor, single point]
32 | COc1ccccc1/C=C/C=N/NC(=O)c1cc(-c2ccco2)[nH]n1 |  | inconclusive: 44.7 µM [inhibitor, partial curve]
33 | O=C(CSc1ccc(-c2ccco2)nn1)NC1CCCCC1 |  | inconclusive: 44.7 µM [inhibitor, full curve]
34 | CC(=O)Nc1ccc(Nc2c([N+](=O)[O-])c(=O)n(-c3ccccc3)c3ccccc23)cc1 |  | inconclusive: 20 µM [inhibitor, partial curve, poor fit]
35 | CCOC(=O)C1=C(C)N(C)C(C)=C(C(=O)OCC)C1c1cccnc1 |  | inconclusive: 39.8 µM [inhibitor, single point]
36 | CC(C)(C)NC(=O)C(c1ccncc1)N(C(=O)Cn1nnc(-c2cccs2)n1)C1CCCCC1 (configuration not stated) |  | inconclusive: 3.55 µM [inhibitor, partial curve, poor fit]
37 | Cc1cccc2c1-c1sc(C(=O)N(C)c3cccc(Cl)c3)cc1CO2 | inactive: -22.3% | 
38 | O=C(c1ccc2c(c1)N(Cc1cccc(F)c1)C(=O)c1ccccc1S2)N1CCCC1 |  | active: 79.4 µM
39 | O=S(=O)(c1cccc2ccccc12)N1CCN(c2ccc(Cl)c(Cl)c2)CC1 | inactive: -12% | 
40 | CC1CCC(NC(=O)CN2C(=O)NC(C)(C)C2=O)CC1 (configuration not stated) |  | inconclusive: 3.16 µM [inhibitor, partial curve, poor fit]
41 | CCOC(=O)c1sc(NC(=O)c2ccoc2C)c(C(N)=O)c1C |  | inconclusive: 25.1 µM [inhibitor, full curve]
42 | Cc1ccn2c(=O)cc(COc3cccc(NC(=O)Nc4cccc(Cl)c4C)c3)nc2c1 | inactive: -11.8% | 
